Results: the supplement of paper PMC11417369
± gives the standard deviation of the averaged measurements. The list shows a part of the results.

These sequences were tested on PfAP2-LT AP2 domain (GST-tagged) (assay: gcPBM binding intensity (ln(normalized median fluorescence intensity)); higher = stronger DNA binding).
Procedure, shortened: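 GST-tagged P. falciparum DNA-binding domains produced in E. coli were incubated for 1 h on an Agilent 4 × 180k array of primer-extended double-stranded 36-bp intergenic genomic probes with negative controls. Binding intensity is the highest Masliner-normalised natural-log median intensity across replicate spots of either probe orientation, with bound protein detected by Alexa488 anti-GST antibody at 488 nm.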
“TATTTATCTATATATTGTACTTATTAGTCTTAATGT [XGTACX_site4242]” was tested, and the “gcPBM binding intensity (ln)” value was 8.88 ± 0.52.
For “TCTTTTTTAATATAATATATTTTTATTAAGTAAATC [TGCATGCA_negctrl_site408]”, the “gcPBM binding intensity (ln)” value was 8.19 ± 0.57.
“TAAATTTATGGACACACACACATATATATATATATA [CACACA_site4620]” was tested, and the “gcPBM binding intensity (ln)” value was 9.955 ± 0.021.
For “TTATATATAGATCACACACACACACCGGTTTTAAAA [CACACA_site4220]”, the “gcPBM binding intensity (ln)” value was 9.75 ± 0.34.
For “AAATTTTAATTAGGAACACACATATATATATATATA [CACACA_site5673]”, the “gcPBM binding intensity (ln)” value was 9.48 ± 0.3.
“CATAAAAATGGATACACACACATAATATATTTATAT [CACACA_site7669]” was tested, and the “gcPBM binding intensity (ln)” value was 9.42 ± 0.35.
In the case of “ACAATATATTCATATTGTACATAAAATAAGGCTAAC [XGTACX_site6728]”, the “gcPBM binding intensity (ln)” value is reported as 8.9 ± 0.4.
For “ATTTTTTATGAAAATAAACACACGATTTATTATATA [CACACA_site1312]”, the “gcPBM binding intensity (ln)” value was 8.53 ± 0.52.
“TTTTCAGAAAAGAGAAACTTTATTTTTCACAACCGA [TGCATGCA_negctrl_site389]” was tested, and the “gcPBM binding intensity (ln)” value was 8.3 ± 0.41.
With “TAAAAAATTATTAAACGTACGAGACTTTTTATCAGT [XGTACX_site2219]” the “gcPBM binding intensity (ln)” value was 8.57 ± 0.43.
“TGTAGTCATTAGTCAAATTAGAATTAAATATATATT [GTGCAC_negctrl_site643]” was tested, and the “gcPBM binding intensity (ln)” value was 8.46 ± 0.46.
In the case of “TTCATTTATATAATCACACATTTTATCATCTATGTT [CACACA_site4327]”, the “gcPBM binding intensity (ln)” value is reported as 8.98 ± 0.47.
With “TTAGAAAGAATGTATTGTACATATATATTATATATA [XGTACX_site7045]” the “gcPBM binding intensity (ln)” value was 8.53 ± 0.46.
With “TGTATATTTTAGTGATGTACTAATATTATTACTAAT [XGTACX_site3952]” the “gcPBM binding intensity (ln)” value was 8.69 ± 0.4.
With “ATATGTTTATTTATTTGTACTTATCATATAATAACA [XGTACX_site5486]” the “gcPBM binding intensity (ln)” value was 8.72 ± 0.43.
In the case of “TGCTTAGCACACTATCTACTTCCTTTGTTTCATAAA [GTGCAC_negctrl_site495]”, the “gcPBM binding intensity (ln)” value is reported as 8.76 ± 0.41.
In the case of “AATATATTTTGATATGAACAATTAATAATTTCAAAT [GTGCAC_negctrl_site170]”, the “gcPBM binding intensity (ln)” value is reported as 8.32 ± 0.42.
For “ATTCTAATTAGTAAAGTGCAGATAAAATGATGCCCT [GTGCAC_site9578]”, the “gcPBM binding intensity (ln)” value was 8.54 ± 0.33.
With “TTTTTCACATCTATAAATCATCTAATCAATATTTTT [GTGCAC_negctrl_site444]” the “gcPBM binding intensity (ln)” value was 8.34 ± 0.55.
In the case of “GCATGCACGGAAAAAAGTACATATATAAATTTGGTT [XGTACX_site3393]”, the “gcPBM binding intensity (ln)” value is reported as 8.96 ± 0.4.
“ATCGTTATATAATGTTGTACTTGTTATATATATATA [XGTACX_site7582]” was tested, and the “gcPBM binding intensity (ln)” value was 9.13 ± 0.33.
With “GGTTCTAAAAAGGGAAGTACATGGAAAAATATAAAT [XGTACX_site4639]” the “gcPBM binding intensity (ln)” value was 8.64 ± 0.64.
With “AAAATTATTATGAAAAGTACAAATATGTAAACATAC [XGTACX_site5517]” the “gcPBM binding intensity (ln)” value was 8.79 ± 0.5.
With “AAAATTTAGCAAAGGTGTACAAAAGATAATTAGAGT [XGTACX_site3467]” the “gcPBM binding intensity (ln)” value was 9.13 ± 0.61.
“TTTTTTAAATATATTTGTACATATGAAATAAAGATA [XGTACX_site3841]” was tested, and the “gcPBM binding intensity (ln)” value was 8.21 ± 0.48.
In the case of “ATTAAAATCATATACACACCCATATATATATATATA [CACACA_site5050]”, the “gcPBM binding intensity (ln)” value is reported as 9.82 ± 0.28.
In the case of “GAATAAATACCGGTGTGTACTTAAATCATTCACGAA [XGTACX_site3174]”, the “gcPBM binding intensity (ln)” value is reported as 9.05 ± 0.36.
For “ATACATATCTACCTATGTACATAATACAACAAAGAT [XGTACX_site323]”, the “gcPBM binding intensity (ln)” value was 9.05 ± 0.38.
“ATTTTATATACAAAATGTACATATTTATTATATATG [XGTACX_site6732]” was tested, and the “gcPBM binding intensity (ln)” value was 8.72 ± 0.43.
In the case of “GCACATATGAATATAATACACACTTGTATTATTAAT [CACACA_site1841]”, the “gcPBM binding intensity (ln)” value is reported as 8.98 ± 0.42.
For “GGAGCTATCTCCTGCACACACAATTTTTTTTTTTTT [CACACA_site2240]”, the “gcPBM binding intensity (ln)” value was 9.12 ± 0.33.
In the case of “AAGGATACGCAAAAATGTACAAAATGCTTATAAATA [XGTACX_site984]”, the “gcPBM binding intensity (ln)” value is reported as 8.89 ± 0.53.
With “TTTTTTTTTAATAAAATTATAATAAATATGAAATTA [XGTACX_negctrl_site369]” the “gcPBM binding intensity (ln)” value was 7.8 ± 0.4.
With “ATATATATATATATATGTACACATATATATACTCAC [XGTACX_site8043]” the “gcPBM binding intensity (ln)” value was 9.89 ± 0.15.
In the case of “TGAGTATATAAATACACACACATATATATATTTTAA [CACACA_site5130]”, the “gcPBM binding intensity (ln)” value is reported as 9.16 ± 0.33.
In the case of “TTTTATTTTTAAGGATGTACTCAATTGTTTATATAC [XGTACX_site3965]”, the “gcPBM binding intensity (ln)” value is reported as 8.85 ± 0.4.
For “AATATCTTAGTGGATACACACATATAAATGGGTATT [CACACA_site4426]”, the “gcPBM binding intensity (ln)” value was 8.92 ± 0.3.
With “AAAAAATTAAAAAAAAAAAAATCATGAAAAAAACAA [CACACA_negctrl_site1673]” the “gcPBM binding intensity (ln)” value was 8.63 ± 0.6.
In the case of “TCATATGTTAAACACACACACACACCGAAAAAAACA [CACACA_site9067]”, the “gcPBM binding intensity (ln)” value is reported as 9.84 ± 0.099.
For “TTTATTGATAATATATATATATATATATATATATAT [GTGCAC_negctrl_site552]”, the “gcPBM binding intensity (ln)” value was 9.15 ± 0.13.
With “AGTCTATAGTAATTTACACACAAAAAAATATCAGGA [CACACA_site7620]” the “gcPBM binding intensity (ln)” value was 9.1 ± 0.4.
With “AGTAGTCTGGAGAAAAGTACATAGTATCTGGTAGCT [XGTACX_site2027]” the “gcPBM binding intensity (ln)” value was 8.85 ± 0.52.
With “CCTAAATAAATGGACACACACATATATATATATATA [CACACA_site1439]” the “gcPBM binding intensity (ln)” value was 9.85 ± 0.29.
